Measurements reported in paper PMC4336329 (PLoS ONE, 2015).
Screen size: about 310,000 compounds; about 14,000 (4.5%) showed an effect of 50% or more. Effects have a minus sign here. Some of the results follow.
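Further: peak tail current of the secondary pulse compared with the same well before compound.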

What follows are molecules tested against human ether-à-go-go-related gene (hERG) potassium channel (human, UniProt Q12809) (assay: primary screen, population patch clamp on CHO cells stably expressing hERG).
human ether-à-go-go-related gene (hERG) potassium channel, sequence (Q12809 whole entry, looked up): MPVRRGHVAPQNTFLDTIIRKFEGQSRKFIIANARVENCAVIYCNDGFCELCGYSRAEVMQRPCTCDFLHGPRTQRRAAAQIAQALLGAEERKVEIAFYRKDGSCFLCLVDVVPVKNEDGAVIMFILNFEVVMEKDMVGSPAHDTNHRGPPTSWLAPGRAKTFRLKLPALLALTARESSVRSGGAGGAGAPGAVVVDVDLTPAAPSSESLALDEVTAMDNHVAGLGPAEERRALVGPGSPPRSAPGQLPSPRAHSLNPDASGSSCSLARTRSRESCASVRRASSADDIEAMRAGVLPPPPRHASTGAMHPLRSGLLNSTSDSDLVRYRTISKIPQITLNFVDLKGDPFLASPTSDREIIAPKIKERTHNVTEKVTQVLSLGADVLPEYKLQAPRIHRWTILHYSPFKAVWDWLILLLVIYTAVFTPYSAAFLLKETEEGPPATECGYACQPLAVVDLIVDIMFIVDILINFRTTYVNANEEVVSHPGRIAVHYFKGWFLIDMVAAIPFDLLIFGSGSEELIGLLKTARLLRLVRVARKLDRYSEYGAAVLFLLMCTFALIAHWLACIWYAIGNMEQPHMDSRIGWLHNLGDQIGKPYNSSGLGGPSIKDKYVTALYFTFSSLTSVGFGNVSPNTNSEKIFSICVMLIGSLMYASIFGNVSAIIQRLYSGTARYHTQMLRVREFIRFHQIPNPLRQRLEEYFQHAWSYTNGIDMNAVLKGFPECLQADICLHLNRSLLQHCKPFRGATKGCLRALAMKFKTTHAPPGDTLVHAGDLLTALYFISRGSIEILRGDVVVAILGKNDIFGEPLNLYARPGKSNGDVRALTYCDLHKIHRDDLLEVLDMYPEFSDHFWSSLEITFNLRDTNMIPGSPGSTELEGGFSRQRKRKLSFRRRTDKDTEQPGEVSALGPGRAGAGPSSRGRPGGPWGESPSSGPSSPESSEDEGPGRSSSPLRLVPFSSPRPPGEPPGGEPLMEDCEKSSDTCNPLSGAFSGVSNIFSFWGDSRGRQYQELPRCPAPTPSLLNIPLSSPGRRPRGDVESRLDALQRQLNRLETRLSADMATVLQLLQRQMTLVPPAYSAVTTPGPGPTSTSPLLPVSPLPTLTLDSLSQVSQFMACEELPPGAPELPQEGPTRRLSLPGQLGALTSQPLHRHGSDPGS
In the case of `Cc1ccc(C(=O)Nc2nnc(-c3ccc(C(C)(C)C)cc3)s2)cc1`, the “hERG current change (%, negative = inhibition) at 10uM” value is reported as 4.81%.
For `CCCn1c(=O)c(C(=O)NCc2ccccc2Cl)c(O)c2ccccc21`, the “hERG current change (%, negative = inhibition) at 10uM” value was 32.6%.
In the case of `Cc1ccc(S(=O)(=O)NCc2ccc(C(=O)NC3CCC(C)CC3)cc2)cc1` (stereo not shown), the “hERG current change (%, negative = inhibition) at 10uM” value is reported as 0.922%.
For `Cc1cc2oc(C(=O)Nc3c(C)n(C)n(-c4ccccc4)c3=O)c(C)c2cc1Cl`, the “hERG current change (%, negative = inhibition) at 10uM” value was -72.2%.
In the case of `CCCOc1ccc(/C=C/C(=O)O)cc1OC`, the “hERG current change (%, negative = inhibition) at 10uM” value is reported as 21.6%.
For `COC(=O)c1sc(S(=O)(=O)Nc2ccc(C)c(C)c2)c(C(=O)OC)c1C`, the “hERG current change (%, negative = inhibition) at 10uM” value was 6.57%.
In the case of `CC(=O)c1ccc(NCC2COc3ccccc3O2)c([N+](=O)[O-])c1` (stereo not shown), the “hERG current change (%, negative = inhibition) at 10uM” value is reported as -12.7%.
`Cc1cc(NC(=O)CSc2nnc(COc3cccc(C)c3C)n2C)no1` was tested, and the “hERG current change (%, negative = inhibition) at 10uM” value was 10.2%.
In the case of `Cc1cc(C(=O)Nc2ncn(Cc3ccc(F)cc3)n2)ccc1[N+](=O)[O-]`, the “hERG current change (%, negative = inhibition) at 10uM” value is reported as -51.7%.
For `O=C(Nc1ccon1)c1cccc(S(=O)(=O)N2CCCCC2)c1`, the “hERG current change (%, negative = inhibition) at 10uM” value was -4.24%.
In the case of `Cc1ccc(C(=O)OCCc2sc[n+](Cc3ccccc3)c2C)cc1.[Cl-]`, the “hERG current change (%, negative = inhibition) at 10uM” value is reported as -70.1%.
For `Cc1cccc(C(C)C)c1NC(=O)COC(=O)CNS(=O)(=O)c1ccccc1`, the “hERG current change (%, negative = inhibition) at 10uM” value was 14.5%.
In the case of `Cc1cc(C)nc(N2CCC(C(=O)NCCc3ccccc3)CC2)n1`, the “hERG current change (%, negative = inhibition) at 10uM” value is reported as 5.74%.
For `O=C(NNC(=S)NC(=O)c1ccccc1)c1cccnc1`, the “hERG current change (%, negative = inhibition) at 10uM” value was 3.97%.
`O=C(NCCCn1ccnc1)c1ccc(Cl)c(Cl)c1` was tested, and the “hERG current change (%, negative = inhibition) at 10uM” value was -17.3%.
`COc1cc(C(=O)NC2CCCC(C)C2C)ccc1OCC(=O)N1CCOCC1` (stereo not shown) was tested, and the “hERG current change (%, negative = inhibition) at 10uM” value was 9.15%.
With `O=C(CN1C(=O)c2ccccc2C1=O)c1ccc(F)cc1` the “hERG current change (%, negative = inhibition) at 10uM” value was -4.57%.
In the case of `CCc1ccc(N2C(=O)CN(Cc3ccccc3)C2=S)cc1`, the “hERG current change (%, negative = inhibition) at 10uM” value is reported as 18.5%.
With `COc1ccccc1NC(=O)c1nnn(CC(=O)Nc2cccc(SC)c2)c1N` the “hERG current change (%, negative = inhibition) at 10uM” value was 5.11%.
In the case of `Cc1nc2scc(C)n2c(=O)c1S(=O)(=O)Nc1ccc(N2CCOCC2)cc1`, the “hERG current change (%, negative = inhibition) at 10uM” value is reported as -0.179%.
For `COc1ccc(CNC(=O)CN(Cc2ccc(Cl)cc2)S(C)(=O)=O)cc1`, the “hERG current change (%, negative = inhibition) at 10uM” value was -45.4%.
`Cc1cc(OCc2nnc(SCC(=O)OC3CCCCC3)o2)ccc1Cl` was tested, and the “hERG current change (%, negative = inhibition) at 10uM” value was -5.56%.
With `Cc1ccccc1C(=O)NCC(=O)OC(C)C(=O)NCc1ccco1` (stereo not shown) the “hERG current change (%, negative = inhibition) at 10uM” value was 4.93%.
`O=C1CSC(=S)N1N1C(=O)c2cccc([N+](=O)[O-])c2C1=O` was tested, and the “hERG current change (%, negative = inhibition) at 10uM” value was 14.5%.
With `O=C(CSc1ccc(Cl)cc1)NN=C1CCCCCC1` the “hERG current change (%, negative = inhibition) at 10uM” value was -18.5%.
With `O=C(Nc1ccc2c(c1)OCCO2)c1cc2sccc2n1Cc1ccc(F)cc1` the “hERG current change (%, negative = inhibition) at 10uM” value was 3.66%.
`Nc1nc(CSc2nnnn2-c2ccc(Cl)cc2)nc(N2CCOCC2)n1` was tested, and the “hERG current change (%, negative = inhibition) at 10uM” value was 12.2%.
For `Cc1ccccc1C(=O)NC1CC2CCCC(C1)N2C(=O)Nc1ccccc1` (stereo not shown), the “hERG current change (%, negative = inhibition) at 10uM” value was -0.97%.
With `COc1ccc(NC(=O)CCc2c(C)nc3nc(CNC(=O)c4cccc(F)c4)nn3c2C)cc1OC` the “hERG current change (%, negative = inhibition) at 10uM” value was 36.7%.
With `O=C(Nc1cccc(S(=O)(=O)N2CCCC2)c1)c1cc(S(=O)(=O)N2CCOCC2)ccc1F` the “hERG current change (%, negative = inhibition) at 10uM” value was -24.7%.
For `CC(C)CCNC(=O)c1ccc(Cn2c(=S)[nH]c3ccccc3c2=O)cc1`, the “hERG current change (%, negative = inhibition) at 10uM” value was 12.1%.
`S=C(Nc1ccccc1)Nc1cccc(Cl)c1Cl` was tested, and the “hERG current change (%, negative = inhibition) at 10uM” value was 4.64%.
`COC(=O)c1sccc1NC(=O)Nc1cc(OC)ccc1OC` was tested, and the “hERG current change (%, negative = inhibition) at 10uM” value was -57.4%.
In the case of `Cc1ccc(CN2C(=O)CCC2C(=O)NCCCN2CCCCC2C)cc1` (stereo not shown), the “hERG current change (%, negative = inhibition) at 10uM” value is reported as 8.87%.
`C/C(=N\NC(=O)c1cccc([N+](=O)[O-])c1)c1ccncc1` was tested, and the “hERG current change (%, negative = inhibition) at 10uM” value was -10.9%.
With `CCN(CC)S(=O)(=O)c1ccc(-c2nnc3sc4cccc(C)c4n23)cc1` the “hERG current change (%, negative = inhibition) at 10uM” value was -3.16%.
In the case of `O=C(NCc1ccc2c(c1)OCO2)c1cc(-c2ccccc2)on1`, the “hERG current change (%, negative = inhibition) at 10uM” value is reported as -0.746%.
With `COc1cc2[nH]c(=S)nc(NCc3cccc(Cl)c3)c2cc1OC` the “hERG current change (%, negative = inhibition) at 10uM” value was 11.2%.
For `Cn1c(SCC(=O)Nc2nccs2)nnc1-c1ccc(S(=O)(=O)N2CCCC2)cc1`, the “hERG current change (%, negative = inhibition) at 10uM” value was 2.67%.
In the case of `N#Cc1cnc(SCCc2ccccc2)nc1N`, the “hERG current change (%, negative = inhibition) at 10uM” value is reported as -10.1%.
For `O=C(/C=C/c1ccccc1)OCCCN=C1NS(=O)(=O)c2ccccc21`, the “hERG current change (%, negative = inhibition) at 10uM” value was -15.6%.
`CCn1c2ccccc2c2cc(CN3CCN(Cc4cc(OC)ccc4O)CC3)ccc21.O=C(O)C(=O)O` was tested, and the “hERG current change (%, negative = inhibition) at 10uM” value was 7.15%.
`CC1=C(C(=O)Nc2ccccc2)C(c2cccs2)NC(=O)N1` (stereo not shown) was tested, and the “hERG current change (%, negative = inhibition) at 10uM” value was 15.6%.
